Test results taken from the supplement of paper PMC10126150.
Values marked as one replicate rest on one cluster of the flow cell; about a third of the high ones do not repeat.

Test system: ATP
Experiment: switch fluorescence ratio, 500 uM ATP over buffer (Cy3 cluster intensity, sum of 5 cycles each) (fold (ratio)); higher = stronger signal-on switching upon ATP binding; sequences stand for … in TCGTCGGCAGCGTCAGATGTGTATAAGAGACAGTTTTTTTTTTTTTTTTTTTTTTTTT…TC
Conditions: aptamer strand: ATP DNA aptamer (quencher-CACCTGGGGGAGTATTGCGGAGGAAGG + anchor), 100 nM annealed; ATP concentration: 500 uM; one replicate
How it was run: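 The fluorescence ratio divides summed target-cycle Cy3 intensity by summed buffer-cycle Cy3 intensity for each cluster and is averaged per switch-domain sequence. Cy3-labelled switching-strand clusters on a modified Illumina MiSeq flow-cell were annealed to 100 nM quencher-labelled ATP aptamer, then imaged in selection buffer and again after 15 min with 500 uM ATP at 22 °C. Five such cycles were run, with NaOH stripping and re-annealing between them, and clusters outside 100-1000 RFU were excluded.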
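Note: ATP exposure 15 min at 22 °C before imaging.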

TCTGTCGATT
switch fluorescence ratio: 1.03

CTGGATGGGT
switch fluorescence ratio: 0.989

AGACGGGGCG
switch fluorescence ratio: 1.06

GGGTAACAGC
switch fluorescence ratio: 0.962

GCCGCCTGGC
switch fluorescence ratio: 0.937

CCTTTAGACC
switch fluorescence ratio: 1.03

CTGACAATTA
switch fluorescence ratio: 1.23

GGATGCCAG
switch fluorescence ratio: 0.971

TTATTGTTAA
switch fluorescence ratio: 0.99

TTGTATCCGC
switch fluorescence ratio: 1

GTTGGTTCCC
switch fluorescence ratio: 0.985

TCGAACTACA
switch fluorescence ratio: 1.08

GATATATTC
switch fluorescence ratio: 1

CAGTTCTTGT
switch fluorescence ratio: 1.01

GATCGTGACC
switch fluorescence ratio: 1.06

GAAACCGAGG
switch fluorescence ratio: 1

CCGCTAGGTC
switch fluorescence ratio: 2.42

AAGATGCAGG
switch fluorescence ratio: 0.992

CCGACACC
switch fluorescence ratio: 1.95

ACAAAGTCAG
switch fluorescence ratio: 0.998

CACAAACGTA
switch fluorescence ratio: 1.32

TTTTTTCCAA
switch fluorescence ratio: 1.05

ATCTGAAGTA
switch fluorescence ratio: 0.969

ACAGATATTA
switch fluorescence ratio: 0.999

GCCTCTAAGC
switch fluorescence ratio: 0.969

TGGGCTTGGT
switch fluorescence ratio: 0.983

CAGAGGAGGA
switch fluorescence ratio: 1.03

GGAGCTGGGT
switch fluorescence ratio: 1.04

CAGTAGCCTA
switch fluorescence ratio: 1.12

GAGCAGTGGG
switch fluorescence ratio: 1.01

TTACGTCTAT
switch fluorescence ratio: 1.08

GGTTATATGG
switch fluorescence ratio: 0.98

ATTCACTTGT
switch fluorescence ratio: 1.04

TAACTTCTCT
switch fluorescence ratio: 1.01

TGACGTTCAA
switch fluorescence ratio: 1.1

TTCCTCGATG
switch fluorescence ratio: 1.06

AACGGTGGAC
switch fluorescence ratio: 1.01

AGGCATAACT
switch fluorescence ratio: 1.07

TATTGTGAC
switch fluorescence ratio: 1.01

TAGGACTCTG
switch fluorescence ratio: 1.13

ATGTGCGTTT
switch fluorescence ratio: 1.05

ACCCAACTCT
switch fluorescence ratio: 1.18

GGTTTATCTA
switch fluorescence ratio: 0.981

TTTTACCTGT
switch fluorescence ratio: 0.988

CTGTAGCTCT
switch fluorescence ratio: 1.85

TATGTAGTTC
switch fluorescence ratio: 0.964

AACGCGAAGC
switch fluorescence ratio: 1

ACATAATTAC
switch fluorescence ratio: 1.12

TATATGATGT
switch fluorescence ratio: 1

AGACGTTAGG
switch fluorescence ratio: 0.985

AACGACCGAC
switch fluorescence ratio: 2.53

TCGGAATTAA
switch fluorescence ratio: 0.998

CTACCTTGTT
switch fluorescence ratio: 0.957

AAGATAAGAG
switch fluorescence ratio: 0.969

AGCGACTACG
switch fluorescence ratio: 0.986

TTTTGCACTC
switch fluorescence ratio: 1.2

AGCATCAGCT
switch fluorescence ratio: 1.05

ATGTCTCAG
switch fluorescence ratio: 0.979

ATCTGAGTGG
switch fluorescence ratio: 0.986

GGTTAACCGT
switch fluorescence ratio: 0.98

ATCCCGGGCT
switch fluorescence ratio: 1

CTGTTGAGCA
switch fluorescence ratio: 1.07

GGTGAGCTTT
switch fluorescence ratio: 0.954

TTTGTTTCCT
switch fluorescence ratio: 1

CGGGGTCCGG
switch fluorescence ratio: 0.989

TAGCCGGGG
switch fluorescence ratio: 0.996

CGGCGGAGGT
switch fluorescence ratio: 0.976

TCGGCATCGC
switch fluorescence ratio: 0.945

TACGATACCA
switch fluorescence ratio: 1.39

GGACGACTTT
switch fluorescence ratio: 1.02

GACTCGCGCG
switch fluorescence ratio: 0.975

AATTAACTTA
switch fluorescence ratio: 0.96

CAAGTTTTAA
switch fluorescence ratio: 0.962

GCGAGGCTAT
switch fluorescence ratio: 0.982

AAGGTGCCAG
switch fluorescence ratio: 1.13

AAGCGGGCGG
switch fluorescence ratio: 0.99

GCCCGACTCC
switch fluorescence ratio: 1.61

CATCTCCGAG
switch fluorescence ratio: 1.17

ACGTGCCGGG
switch fluorescence ratio: 0.967

GACGGGTATT
switch fluorescence ratio: 1.02

TGACTTAGT
switch fluorescence ratio: 0.961

GTTTTGAGGA
switch fluorescence ratio: 1.01

GTTATCCCAG
switch fluorescence ratio: 0.989

ACACCAGGCT
switch fluorescence ratio: 1.15

ATTACCGTCG
switch fluorescence ratio: 1.04
